# The campaign covered roughly 310,000 compounds. About 2,200 (0.71%) showed an effect of 50% or more. The effect is printed as a negative number. Some of the results follow.
# Target: human ether-à-go-go-related gene (hERG) potassium channel (human, UniProt Q12809)
# Assay: primary screen, population patch clamp on CHO cells stably expressing hERG
# Sequence of human ether-à-go-go-related gene (hERG) potassium channel (Q12809 whole entry, looked up): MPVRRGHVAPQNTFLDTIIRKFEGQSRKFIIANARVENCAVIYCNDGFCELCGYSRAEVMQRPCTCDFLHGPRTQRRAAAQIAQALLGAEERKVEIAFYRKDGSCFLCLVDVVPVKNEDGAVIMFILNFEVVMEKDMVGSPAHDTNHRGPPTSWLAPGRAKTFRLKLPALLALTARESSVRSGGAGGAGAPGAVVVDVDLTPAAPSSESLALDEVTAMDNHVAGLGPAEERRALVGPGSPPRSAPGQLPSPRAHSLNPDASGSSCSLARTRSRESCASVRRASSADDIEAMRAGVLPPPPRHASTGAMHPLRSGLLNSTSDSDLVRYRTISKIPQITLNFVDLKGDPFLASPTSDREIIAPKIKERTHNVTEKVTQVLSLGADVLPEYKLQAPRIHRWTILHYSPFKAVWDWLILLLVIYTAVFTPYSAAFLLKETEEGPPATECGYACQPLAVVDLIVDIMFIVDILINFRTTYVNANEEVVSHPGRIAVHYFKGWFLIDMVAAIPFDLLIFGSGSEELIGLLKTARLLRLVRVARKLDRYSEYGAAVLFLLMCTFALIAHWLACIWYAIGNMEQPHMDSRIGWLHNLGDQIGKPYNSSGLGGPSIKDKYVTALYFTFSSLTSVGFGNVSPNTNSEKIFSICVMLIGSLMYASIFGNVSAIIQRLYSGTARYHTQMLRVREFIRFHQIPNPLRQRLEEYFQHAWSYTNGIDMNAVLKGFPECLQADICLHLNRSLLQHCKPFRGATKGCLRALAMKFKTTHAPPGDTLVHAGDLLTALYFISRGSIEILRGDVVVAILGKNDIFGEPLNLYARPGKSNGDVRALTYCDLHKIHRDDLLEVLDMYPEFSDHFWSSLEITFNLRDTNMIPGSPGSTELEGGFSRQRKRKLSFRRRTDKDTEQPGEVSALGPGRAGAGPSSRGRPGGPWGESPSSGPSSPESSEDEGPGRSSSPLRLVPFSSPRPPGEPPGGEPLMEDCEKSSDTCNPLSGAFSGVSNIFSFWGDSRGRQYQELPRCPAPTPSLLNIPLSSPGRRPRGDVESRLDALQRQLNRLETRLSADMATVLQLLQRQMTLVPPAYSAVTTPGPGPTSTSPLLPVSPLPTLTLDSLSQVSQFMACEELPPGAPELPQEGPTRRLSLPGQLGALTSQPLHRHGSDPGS
row,SMILES,"hERG current change (%, negative = inhibition) at 1uM [%]"
1,Cc1ccc(N2C(=O)c3ccccc3C2=O)nc1,13.2
2,O=C(c1ccco1)N1CCN(c2nc3ccccc3c(=O)n2-c2ccccc2)CC1,-22.1
3,CC(=O)Nc1cccc(NC(=O)c2cc(-c3ccccn3)nc3ccc(Cl)cc23)c1,-3.72
4,COc1ccc(OC)c(NC(=O)C2CCN(S(=O)(=O)c3c(C)noc3C)CC2)c1,1.91
5,CN(C)/C=C/c1c([N+](=O)[O-])c2ccc(O)cc2n1-c1ccccc1,13.6
6,Cc1c(O)ccc(C(=O)CN2CCN(Cc3ccc4c(c3)OCO4)CC2)c1O,0.814
7,CC(=O)c1ccc(Cc2cnc(N)s2)cc1,1.51
8,COc1ccccc1CNC(=O)COC(=O)Cc1cccs1,6.33
9,Cc1cc(C(=O)OCC(=O)N(CC(C)C)c2c(N)n(Cc3ccccc3)c(=O)[nH]c2=O)c(C)o1,9.08
10,Cc1ccc(NC(=O)NC(=S)NC(=O)c2ccccc2)cc1,-4.83
11,COc1ccc(C(=O)NCCC(=O)N2CCC3(CC2)NCCc2[nH]cnc23)cc1,18.4
12,COC(=O)c1ccc(OC(=O)C2CC(=O)N(c3cccc(C)c3)C2)cc1 (centres unmarked),5.65
13,COC(=O)C1=C(C(=O)OC)SC(=C2C(=S)C(C)(C)N(C(=O)C3CC3)c3ccccc32)S1,3.98
14,O=C(CN1C(=O)COc2ccc(Cl)cc21)N1CCOCC1,9.59
15,COc1ccccc1NC(=O)CCc1nnc2ccc(NCc3ccco3)nn12,10.8
16,O=C(c1ccc2c3c(cccc13)CC2)N1CCN(c2ncccn2)CC1,7.43
17,CSc1nnc(C(C)(C)C)c(=O)n1/N=C/c1ccccc1,2.52
18,CSC(=NNC(=O)c1ccc(O)cc1)SC,12.7
19,CCc1ccc(OCC(=O)OC2CCS(=O)(=O)C2)cc1 (centres unmarked),5.54
20,Cc1ccc(-n2nc3ccc(NC(=O)C(C)C)cc3n2)cc1,8.82
21,CN(Cc1cccs1)C(=O)c1cc(S(=O)(=O)N2CCOCC2)ccc1F,4.08
22,Br.CC(=O)c1cccc(N=c2scc(-c3ccc(S(=O)(=O)N4CCOCC4)cc3)n2CCO)c1,-16.5
23,CC(=O)N(C1=C(N)C(=O)c2ccccc2C1=O)C(C)C,12.3

row,SMILES,"hERG current change (%, negative = inhibition) at 1uM [%]"
1,Oc1ccccc1N1CCN(c2ncnc3scc(-c4ccccc4)c23)CC1,13.3
2,CCC(=O)Nc1ccccc1C(=O)OCC(=O)c1cccc2ccccc12,-1.34
3,O=C(Nc1ccc(Cl)cc1Cl)c1ccc(Br)o1,6.99
4,Cn1c(=O)oc2cc(S(=O)(=O)NCCN3CCCCCC3)ccc21,19.5
5,CC(C)(C)C(CN1CCCC1)OC(=O)c1ccccc1.Cl (centres unmarked),12.7
6,COCC1CCN(C(=O)c2cc(COc3ccc(C)c(C)c3)on2)C1 (centres unmarked),5.45
7,O=S(=O)(c1ccc(F)cc1)N1CN(Cc2ccco2)c2nc3ccccc3nc21,10.6
8,CCc1cc(C(=O)OC)c(NC(=O)CC2NCCNC2=O)s1 (centres unmarked),13.1
9,NS(=O)(=O)c1ccc(Cl)c(C(=O)Nc2ccccc2[N+](=O)[O-])c1,8.75
10,CCC(C(=O)Nc1ccncc1)c1ccccc1 (centres unmarked),13.4
11,Cc1cccc(CSc2nnc(NC(=O)CSc3nnc(C)s3)s2)c1,4.56
12,O=C(c1ccccc1)N1CCCCC(Cl)C1=O (centres unmarked),7.83
13,O=C(NCc1ccccc1Cl)C1CC(=O)N(Cc2ccccc2)C1 (centres unmarked),0.378
14,CN(C(=O)COc1ccccc1)c1nc(-c2ccc(F)cc2)cs1,13.3
15,O=C(O)c1ccc(Br)c(S(=O)(=O)N2CCCC2)c1,9.41
16,CCC(C)[C@H](NC(=O)N1CCn2c1nc1ccccc12)C(=O)NCCc1ccccc1 (some centres unmarked),13.3
17,CCOC(=O)c1sc(N/N=C/c2cc(Br)c(O)c(OC)c2)nc1C,8.39
18,O=C(Nc1cccnc1)c1cc(-c2cccnc2)nc2ccc(Br)cc12,-17.5
19,CSCCC(N=C1NS(=O)(=O)c2ccccc21)C(=O)NCCc1ccccc1 (centres unmarked),30.7
20,CC1CC(C)CN(c2ccc(C(=O)OCC(=O)NC3CCCc4ccccc43)cc2[N+](=O)[O-])C1 (centres unmarked),17.5
21,COc1ccc(/C=C/C(=O)OCC(=O)c2c(N)n(C)c(=O)n(C)c2=O)cc1,9.03
22,NS(=O)(=O)c1ccc(NC(=O)Nc2cccc(Cl)c2)cc1,17
23,CC1Oc2ccccc2N(CC(=O)NCC2CCCO2)C1=O (centres unmarked),-4.78

row,SMILES,"hERG current change (%, negative = inhibition) at 1uM [%]"
1,FC(F)(F)c1ccc2c3n(nc2c1)CCN=C3c1ccc(Cl)cc1,12.3
2,CCc1nn(-c2ccccc2)c(=S)c2ccccc12,6.04
3,Cc1nn(-c2ccccc2)c(Cl)c1/C=C1\SC(=S)N(CCCCCC(=O)O)C1=O,-4.69
4,CNC(=O)c1ccc(-c2ccc(OC)cc2)s1,15.6
5,CCn1c(SC)nnc1C1CCN(CC(=O)Nc2ccccc2N2CCOCC2)CC1,5.57
6,O=C(NCc1ccccc1)C(c1ccccn1)N(C(=O)c1csnn1)c1ccccc1F (centres unmarked),-0.204
7,COc1ccc([N+](=O)[O-])cc1NC(=O)CCc1ccccc1,7.21
8,O=C(Nc1cccc(OC(=O)N2CCCCC2)c1)N1CCOCC1,12.9
9,S=c1[nH]c2ccccc2n1Cc1ccccc1,16.2
10,COc1ccc(NC(=O)CSc2ccccn2)c([N+](=O)[O-])c1,13.6
11,CCOc1ccc(C2C(C(=O)c3ccco3)=C(O)C(=O)N2CCCn2ccnc2)cc1OC (centres unmarked),1.12
12,CCOc1ccc(C(=O)CCC(=O)NCC(=O)Nc2c(C)cccc2C)cc1,2.9
13,COC(=O)CCC(=O)NC(=S)Nc1ccc(S(=O)(=O)N2CCCC2)cc1,8.06
14,CC(C)C(=O)Nc1nnc(SCC(=O)N2C(C)CCCC2C)s1 (centres unmarked),10.1
15,O=C(Cn1nnc(-c2ccccc2)n1)Nc1ccccc1N1CCOCC1,12.2
16,CC(OC(=O)CN1C(=O)C2CCCCC2C1=O)C(=O)Nc1ncc(Cl)cc1Cl (centres unmarked),17.3
17,CCOC(=O)C1(Cc2ccc(OC)cc2)CCN(C(=O)c2cc3ccccc3[nH]2)CC1,4.46
18,O=C1CCC([N+](=O)[O-])C(c2cccc(Cl)c2Cl)N1 (centres unmarked),-3.66
19,CN(Cc1ccccc1)C(=O)c1[nH]cnc1C(=O)N[C@@H](CCCCNC(=O)OC(C)(C)C)C(=O)OC(C)(C)C,1.36
20,Nc1c(-c2ccccn2)cnn1-c1nc(-c2ccc(F)cc2)cs1,6.75
21,Cc1cc(C)nc(SCc2ccc(F)cc2)n1,2.48
22,CCCNS(=O)(=O)c1ccc(OCC(=O)N2CCOCC2)cc1,8.1
23,CCn1c(SCC(=O)Nc2cc(C)on2)nc2c1c(=O)n(C)c(=O)n2C,16.3

row,SMILES,"hERG current change (%, negative = inhibition) at 1uM [%]"
1,NC(=O)C(=O)N/N=C1\CCc2ccccc21,13
2,COc1cccc(CNC(=O)COC(=O)C2CC3CCCC(C2)C3=O)c1 (centres unmarked),12.6
3,Cn1nc(C(=O)NCC(=O)Nc2ccc(F)c(F)c2F)c2ccccc2c1=O,11.2
4,Clc1ccc(CNc2ccccc2NCc2ccc(Cl)nc2)cn1,4.92
5,CN(C)c1ccc(N2C(=NC(=O)CC3CCCCC3)SC3CS(=O)(=O)CC32)cc1 (centres unmarked),13.7
6,Cc1cc(CC(=O)[O-])n(C)c1C(=O)c1ccc(Cl)cc1.[Na+],6.14
7,Cc1csc(N(C)C(=O)CSc2nnc(COc3cccc4ccccc34)o2)n1,9.99
8,O=C(CS(=O)(=O)c1c[nH]c2ccccc12)Nc1ccc(F)cc1,-3.46
9,Cc1c(Br)c(=O)oc2cc(OCC(=O)N3C[C@H]4C[C@@H](C3)c3cccc(=O)n3C4)ccc12,8.78
10,O=C(c1ccco1)N1CCCN(Cc2nc(-c3ccc4c(c3)OCO4)no2)CC1,-28.5
11,Cc1cccc(C)c1NC(=O)CSc1nnc(-c2ccoc2C)n1C,7.45
12,O=C(Nc1ccccc1Cl)Nn1cnnc1,17.9
13,Cc1ccc(C(=O)NCCN2CCOCC2)cc1Cl,8.75
14,NC(=O)C1(N2CCCCC2)CCN(C2CC(=O)N(Cc3cccs3)C2=O)CC1 (centres unmarked),14
15,Cc1cc(C)cc(OC(C)C(=O)Nc2ccc3c(c2)n(C)c(=O)n3C)c1 (centres unmarked),9.42
16,c1coc(-c2nc(-c3ccncc3)no2)c1,2.91
17,COc1ccc(CCNC(=O)C2CC(c3cccc(F)c3)=NO2)cc1 (centres unmarked),14
18,CCOC(=O)CC(C)(C)/C(C)=N/Nc1ccc([N+](=O)[O-])cc1[N+](=O)[O-],-17.2
19,CC(CCc1ccccc1)NC(=O)c1ccc(NC(=O)c2cccc(Br)c2)cc1 (centres unmarked),9.18
20,Cc1noc(C)c1COC(=O)c1ccccc1Sc1ccccc1C#N,-4.24
